Some of the results follow.
What was measured:
Experiment in all cases: glycan array binding signal (z-score within array); higher = stronger binding
Details in all cases: glycan notation: IUPAC condensed, linker removed
[1] = molecular target: Fuc(a1-3)GlcNAc
In short: (§1)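 Glycan array data came from 3228 arrays in the Consortium for Functional Glycomics database, and only arrays with an available protein sequence were kept. Glycan names were put into IUPAC-condensed notation, and columns mapping to the same glycan were averaged. The binding signal is a within-array Z-score, averaged across arrays of one protein sequence run at different concentrations or buffers and across linkers. A negative Z-score can be read as non-binding.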

[2] = molecular target: Fuc(a1-3)[Gal(b1-4)]Glc6S
In short: as §1

[3] = molecular target: Fuc(a1-3)[Gal(b1-4)]GlcNAc
In short: as §1

[4] = molecular target: Fuc(a1-3)[Gal(b1-4)]GlcNAc(b1-2)Man
In short: as §1

[5] = molecular target: Fuc(a1-3)[Gal(b1-4)]GlcNAc(b1-2)Man(a1-3)[Fuc(a1-3)[Gal(b1-4)]GlcNAc(b1-2)Man(a1-6)]Man(b1-4)GlcNAc(b1-4)GlcNAc
In short: as §1

[6] = molecular target: Fuc(a1-3)[Gal(b1-4)]GlcNAc(b1-2)Man(a1-3)[Fuc(a1-3)[Gal(b1-4)]GlcNAc(b1-2)Man(a1-6)]Man(b1-4)GlcNAc(b1-4)[Fuc(a1-6)]GlcNAc
In short: as §1

[7] = molecular target: Fuc(a1-3)[Gal(b1-4)]GlcNAc(b1-3)Gal(b1-3)[Fuc(a1-4)]GlcNAc
In short: as §1

[8] = molecular target: Fuc(a1-3)[Gal(b1-4)]GlcNAc(b1-3)Gal(b1-4)[Fuc(a1-3)]GlcNAc
In short: as §1

[9] = molecular target: Fuc(a1-3)[Gal(b1-4)]GlcNAc(b1-3)Gal(b1-4)[Fuc(a1-3)]GlcNAc(b1-3)Gal(b1-4)[Fuc(a1-3)]GlcNAc
In short: as §1

[10] = molecular target: Fuc(a1-3)[Gal(b1-4)]GlcNAc(b1-3)GalNAc
In short: as §1

[11] = molecular target: Fuc(a1-3)[Gal(b1-4)]GlcNAc(b1-6)GalNAc
In short: as §1

[12] = molecular target: Fuc(a1-3)[Gal(b1-4)]GlcNAc(b1-6)[Gal(b1-3)GlcNAc(b1-3)]Gal(b1-4)Glc
In short: as §1

[13] = molecular target: Fuc(a1-3)[Gal(b1-4)]GlcNAc6S
In short: as §1

[14] = molecular target: Fuc(a1-3)[Gal3S(b1-4)]Glc
In short: as §1

[15] = molecular target: Fuc(a1-3)[Gal3S(b1-4)]GlcNAc
In short: as §1

[16] = molecular target: Fuc(a1-3)[Gal3S(b1-4)]GlcNAc6S
In short: as §1

[17] = molecular target: Fuc(a1-3)[GalNAc(b1-4)]GlcNAc
In short: as §1

[18] = molecular target: Fuc(a1-3)[GalNAc(b1-4)]GlcNAc6S
In short: as §1

[19] = molecular target: Fuc(a1-4)GlcNAc
In short: as §1

[20] = molecular target: Fuc(b1-3)GlcNAc
In short: as §1

[21] = molecular target: Gal(a1-2)Gal
In short: as §1

[22] = molecular target: Gal(a1-3)Gal
In short: as §1

[23] = molecular target: Gal(a1-3)Gal(b1-3)GlcNAc
In short: as §1

[24] = molecular target: Gal(a1-3)Gal(b1-3)GlcNAc(b1-2)Man
In short: as §1

[25] = molecular target: Gal(a1-3)Gal(b1-3)GlcNAc(b1-2)Man(a1-3)[Gal(a1-3)Gal(b1-3)GlcNAc(b1-2)Man(a1-6)]Man(b1-4)GlcNAc(b1-4)GlcNAc
In short: as §1

[26] = molecular target: Gal(a1-3)Gal(b1-3)GlcNAc(b1-3)GalNAc
In short: as §1

[27] = molecular target: Gal(a1-3)Gal(b1-3)GlcNAc(b1-6)GalNAc
In short: as §1

[28] = molecular target: Gal(a1-3)Gal(b1-3)[Fuc(a1-4)]GlcNAc(b1-2)Man(a1-3)[Gal(a1-3)Gal(b1-3)[Fuc(a1-4)]GlcNAc(b1-2)Man(a1-6)]Man(b1-4)GlcNAc(b1-4)GlcNAc
In short: as §1

[29] = molecular target: Gal(a1-3)Gal(b1-4)Glc
In short: as §1

[30] = molecular target: Gal(a1-3)Gal(b1-4)GlcNAc
In short: as §1

B1: SialidaseA (Arthrobacter ureafaciens) (protein)
chain: MRSNSTSAPSLVRRAATGVLTCAVSIGLLAGLGLPAQAAPTPPNSPTLPPGSFSETNLAADRTAANFFYRIPALTYLGNDVVLAAWDGRPGSAADAPNPNSIVQRRSTDGGKTWGPVQVIAAGHVADASGPRYGYSDPSYIYDAEANKVFAFFVYSKDQGFGGSQFGNDDADRNVISSAVIESSDAGVTWSQPRLITSVTKPGTSKTNPAAGDVRSNFASSGEGIQLKYGPHKGRLIQQYAGDVRQADGSNKIQAYSVYSDDHGVTWHKGANVGDRMDENKTVELSDGRVLLNSRDNANRGYRKVAVSTDGGATYGPVSQDTELPDPANNGAIARMFPNAAQGSADAKKLIFTNANSKTGRENVSARVSCDDGETWPGVRTIRSGFSAYSTVTRLADGKFGVLYEGNYTDNMPFATFDDAWLNYVCAPLAVPAVNIAPSATQEVPVTVTNQEATTLSGATATVYTPSGWSATTVPVPDVAPGASVTVTVALTAPADASGPRSLNAAFTTADGRVSQFTFTATTPVAPQVGLTITGSAPARDVAANPYQAGDVLGYTLNVKSTANVAANSVPLTGTFDSGFLPPAAPNCRYNNLAAGASYNCTTAKHTITAADMERGYFVPEATFSITSTTTPSLTKTVQFTGAAVALRDGLISADISGARTDVGRDLATRPYAAGELVPYAFTVKNTSPFVEQVVPTAGNFSPFLPAGAGNCRYLSLPAGQSYECATPRHAVTAEEVEQGFFVPDTTWEVSAAGQSTRTYRINGGEVDLLVRDAALSATVVAEWKDADGDRFASAGDPVTFTYTVGNAGNVALTGLEAPDAGISLPFLAPGDTATATREHVLTAADVAGGSLAASAFEATARNGSKEVTATAEGQPLELKVQPAQPSKEPELTVQDLEDQTPPFDLGTAFKYRTGQKVSLAGLEYGQWYYVYLNKTGYRLGWMFPTTGDTVEFILPPEVRNGRDDVVVLDKDGRRVSFDRLQVTPKGEKI
With B1 the “glycan array binding signal (z-score)” value [1] was -0.8, the “glycan array binding signal (z-score)” value [2] was -0.604 and the “glycan array binding signal (z-score)” value [3] was -0.438. The “glycan array binding signal (z-score)” value [4] was -0.877, the “glycan array binding signal (z-score)” value [5] was -0.677 and the “glycan array binding signal (z-score)” value [6] was -0.138. For the same binder, the “glycan array binding signal (z-score)” value [7] was -0.767, the “glycan array binding signal (z-score)” value [8] was -0.612 and the “glycan array binding signal (z-score)” value [9] was -0.257. For the same binder, the “glycan array binding signal (z-score)” value [10] was -0.515, the “glycan array binding signal (z-score)” value [11] was -0.571 and the “glycan array binding signal (z-score)” value [12] was -0.73. For the same binder, the “glycan array binding signal (z-score)” value [13] was -0.53, the “glycan array binding signal (z-score)” value [14] was -0.726 and the “glycan array binding signal (z-score)” value [15] was -0.8. The “glycan array binding signal (z-score)” value [16] was -0.359, the “glycan array binding signal (z-score)” value [17] was -0.38 and the “glycan array binding signal (z-score)” value [18] was -0.682. The “glycan array binding signal (z-score)” value [19] was -0.465, the “glycan array binding signal (z-score)” value [20] was -0.514 and the “glycan array binding signal (z-score)” value [21] was -0.616. For the same binder, the “glycan array binding signal (z-score)” value [22] was -0.532, the “glycan array binding signal (z-score)” value [23] was -0.563 and the “glycan array binding signal (z-score)” value [24] was -0.414. For the same binder, the “glycan array binding signal (z-score)” value [25] was 0.062, the “glycan array binding signal (z-score)” value [26] was -0.722 and the “glycan array binding signal (z-score)” value [27] was -0.605. The “glycan array binding signal (z-score)” value [28] was -0.047, the “glycan array binding signal (z-score)” value [29] was -0.505 and the “glycan array binding signal (z-score)” value [30] was -0.53.
